Reference: article PMC13208732 (2026)

Target: T1, recombinant human placental growth factor 2 (PlGF-2) (human, UniProt P49763-3 19-170)
T1 chain: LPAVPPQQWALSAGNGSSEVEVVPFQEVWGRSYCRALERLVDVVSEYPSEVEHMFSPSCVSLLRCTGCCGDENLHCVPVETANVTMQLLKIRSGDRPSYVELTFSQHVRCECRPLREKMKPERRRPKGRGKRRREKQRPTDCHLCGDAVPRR
Assay: ELISA; competition with biotinylated NRP1, no heparin

IC50: 22.2 nM
B1: NRP1 receptor domains α1α2β1β2 fused to a C-terminal Fc, biotinylated (Fc fusion)
chain: not shown
modifications: biotin (EZ-Link Sulfo-NHS-Biotinylation Kit)
